Test results published in PubChem BioAssay AID504332 (National Center for Advancing Translational Sciences (NCATS), 2011).
The campaign covered roughly 350,000 compounds. About 31,000 (8.9%) were called active. The shares of active, inactive and inconclusive entries below differ from those in the screen. Calls follow the shape of the dose curve; as a rule, active = well fitted inhibition curve with a large enough effect; inconclusive = small, poorly fitted or top-dose-only effect; inactive = no such curve, though single readings can be large or run the other way. Potencies of inconclusive entries are doubtful fits and often do not repeat.

Molecular target: Histone-lysine N-methyltransferase EHMT2 (Homo sapiens) (UniProt Q96KQ7)
Chain of UniProt Q96KQ7 (Q96KQ7 whole entry, looked up): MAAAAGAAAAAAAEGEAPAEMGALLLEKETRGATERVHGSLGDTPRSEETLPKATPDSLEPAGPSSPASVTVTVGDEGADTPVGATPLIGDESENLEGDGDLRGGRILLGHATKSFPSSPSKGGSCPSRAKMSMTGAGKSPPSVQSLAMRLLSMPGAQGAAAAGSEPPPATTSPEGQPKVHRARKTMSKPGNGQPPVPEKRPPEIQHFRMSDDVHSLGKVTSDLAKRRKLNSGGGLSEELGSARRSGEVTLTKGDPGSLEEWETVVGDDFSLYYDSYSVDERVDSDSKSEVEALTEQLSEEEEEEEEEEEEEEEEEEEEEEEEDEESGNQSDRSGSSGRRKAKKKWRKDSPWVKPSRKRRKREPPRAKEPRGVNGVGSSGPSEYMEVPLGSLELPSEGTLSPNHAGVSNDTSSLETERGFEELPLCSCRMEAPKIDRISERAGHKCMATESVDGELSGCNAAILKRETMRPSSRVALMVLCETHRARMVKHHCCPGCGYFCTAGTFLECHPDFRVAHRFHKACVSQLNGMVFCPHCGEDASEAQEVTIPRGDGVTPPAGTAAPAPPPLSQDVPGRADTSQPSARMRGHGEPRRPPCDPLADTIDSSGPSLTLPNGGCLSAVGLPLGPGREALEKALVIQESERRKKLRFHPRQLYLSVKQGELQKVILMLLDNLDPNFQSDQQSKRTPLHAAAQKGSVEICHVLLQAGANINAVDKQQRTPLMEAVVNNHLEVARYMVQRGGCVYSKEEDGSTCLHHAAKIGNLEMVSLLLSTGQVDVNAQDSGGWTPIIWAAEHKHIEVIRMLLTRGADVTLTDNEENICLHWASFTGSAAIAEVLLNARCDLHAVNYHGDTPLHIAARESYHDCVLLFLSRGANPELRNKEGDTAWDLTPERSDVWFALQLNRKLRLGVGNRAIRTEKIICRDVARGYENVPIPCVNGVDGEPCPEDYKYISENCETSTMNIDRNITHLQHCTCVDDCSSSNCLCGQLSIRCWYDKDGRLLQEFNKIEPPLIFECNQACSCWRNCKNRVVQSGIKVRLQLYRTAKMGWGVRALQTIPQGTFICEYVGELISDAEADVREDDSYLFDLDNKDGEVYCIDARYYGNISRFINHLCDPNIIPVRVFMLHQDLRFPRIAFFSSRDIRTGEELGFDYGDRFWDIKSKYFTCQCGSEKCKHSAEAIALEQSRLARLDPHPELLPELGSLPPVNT
Assay: qHTS Assay for Inhibitors of Histone Lysine Methyltransferase G9a; also: nearly all actives have a fitted effect of over 75% in size
Conditions: G9a H3K9 monomethylation, AlphaScreen, 2 h; activity, negative = inhibition: at 59 µM (top of the series) unless noted
Method in brief: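 Methyltransferase reactions run at room temperature for 2 h (20 nM enzyme, 500 nM biotin-H3K9 peptide, 20 uM SAM) after a 15 min compound preincubation; product detected by AlphaScreen beads and anti-H3K9me1 antibody.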
% is scaled to controls: 0 for no effect and ±100 for the full control effect; potency is read from the fitted curve at half-maximal effect; tags tell the direction and shape of the fitted curve.

SMILES | Potency | activity, negative = inhibition
CN(C)c1nc(C=C(C#N)C#N)c(Cl)n1-c1ccc(F)cc1 | inconclusive: 50.1 µM [inhibitor, partial curve] | –
CCOc1cccc(C(=O)N(Cc2ccc(N(C)C)cc2)CC2CCCO2)c1 (configuration not stated) | active: 14.1 µM | –
c1ccc(COc2cccc(CN3CCCCC3)c2)cc1 | active: 35.5 µM | –
Cn1c(=O)n(C)c2cc(N3CCOCC3)c(NS(=O)(=O)c3ccc(C(C)(C)C)cc3)cc21 | inconclusive: 14.1 µM [inhibitor, partial curve, poor fit] | –
Cc1nc(Cl)cc(CS(=O)(=O)c2ccc(Cl)cc2)n1 | inconclusive: 56.2 µM [inhibitor, partial curve, poor fit] | –
Cn1c(=O)[nH]c(=O)c2c1nc(N1CCCCCC1)n2CCSc1nc2ccccc2o1 | inconclusive: 89.1 µM [inhibitor, partial curve, poor fit] | –
C1CCc2nnc(C3CC3)n2CC1 | inconclusive: 89.1 µM [inhibitor, single point] | –
COc1ccc(NC(=O)c2cc(S(=O)(=O)N3CCc4ccccc43)cn2C)cc1OC | inconclusive: 89.1 µM [inhibitor, single point] | –
Cc1cccc(NC(=O)CCc2c(C)nn(-c3ccc(N4CCCCC4)nn3)c2C)c1 | – | inactive: 16.3% [at 102 µM]
COc1cccc(C2C3=C(CCCC3=O)Nc3[nH]n(-c4ccccc4)c(=O)c32)c1 (configuration not stated) | inconclusive: 56.2 µM [inhibitor, partial curve, poor fit] | –
CC(=O)c1c(N2CCN(C)CC2)nc(=S)n(-c2cc(C)ccc2C)c1C | inconclusive: 79.4 µM [inhibitor, partial curve, poor fit] | –
S=C1NCCc2ccccc2C1c1ccccc1 (configuration not stated) | inconclusive: 39.8 µM [inhibitor, single point] | –
CC(C)(CNc1ccc(C(F)(F)F)cc1[N+](=O)[O-])N1CCOCC1 | active: 70.8 µM | –
COc1ccc(C(=O)NCc2oc(-c3ccccc3)cc2C(=O)O)cc1 | inconclusive: 28.2 µM [inhibitor, single point] | –
CC1CCCN(C(=O)c2ccc([N+](=O)[O-])o2)C1 (configuration not stated) | – | inactive: 15% [at 102 µM]
CCCCCCNS(=O)(=O)c1ccccc1Br | inconclusive: 1.41 µM [inhibitor, single point] | –
COc1ccc(-c2c[n+](CC(=O)OC3CC(C)CCC3C(C)C)c3n2CCC3)cc1 (configuration not stated) | inconclusive: 0.708 µM [inhibitor, full curve, poor fit] | –
O=S(=O)(Nc1cc(Sc2cccc3cccnc23)c(O)c2ccccc12)c1ccccc1 | active: 1.58 µM | –
Clc1ccc(CN2CCN(c3ccccc3)CC2)cn1 | – | inactive: 4.82% [at 102 µM]
CCOc1ccc(CC(=NCCO)C2=C(O)CC(C)(C)CC2=O)cc1OCC | inconclusive: 20 µM [inhibitor, single point] | –
O=S(=O)(NCCCc1ccccc1)c1cccc2nsnc12 | – | inactive: 7.37% [at 102 µM]
CN(C)S(=O)(=O)c1cc(NC(=O)c2ccc(-n3ccnc3)c([N+](=O)[O-])c2)ccc1Cl | active: 44.7 µM | –
Cc1occc1C(=O)NCCc1ccc(Cl)cc1 | active: 79.4 µM | –
CC1CCN(S(=O)(=O)c2ccc3c(ccc(=O)n3CC(=O)Nc3ccc(C(C)C)cc3)c2)CC1 | – | inactive: -8.65%

SMILES | Potency | activity, negative = inhibition
Nc1nc(-c2ccc3c(c2)NC(=O)CO3)cs1 | inconclusive: 63.1 µM [inhibitor, partial curve, poor fit] | –
CC(SCc1ccccc1)C(=O)Nc1ccc2c(c1)OCO2 (configuration not stated) | inconclusive: 25.1 µM [inhibitor, single point] | –
CCOc1ccc(N(C(=O)c2ccccc2F)S(=O)(=O)c2ccc3c(c2)n(C)c(=O)n3C)cc1 | – | inactive: -0.576%
COc1ccc(-c2cc(=O)oc3cc(OC(C)C(=O)NC(Cc4c[nH]c5ccc(O)cc45)C(=O)O)ccc23)cc1 (configuration not stated) | active: 50.1 µM | –
COc1cc(SC)ccc1C(=O)NCCOc1c(C)cc(C)cc1C | – | inactive: 44% [at 102 µM]
CCN(CC)S(=O)(=O)c1ccc(N2CCOCC2)c(NC(=O)COc2ccccc2)c1 | – | inactive: -32% [at 102 µM]
CC1Cc2cc(S(=O)(=O)N3CCC(C(=O)N(C)Cc4ccco4)CC3)ccc2N1C(=O)C1CCC1 (configuration not stated) | inconclusive: 79.4 µM [inhibitor, single point] | –
CCCn1c2ccccc2c2nnc(SCC(=O)Nc3cc(C)on3)nc21 | inconclusive: 100 µM [inhibitor, single point] | –
CCN(CC)CCOc1cccc(C(C)C)c1 | inconclusive: 3.16 µM [inhibitor, single point] | –
COc1ccc(CCNC(=O)c2nnn(CC(=O)Nc3cccc(F)c3)c2N)cc1OC | active: 44.7 µM | –
Cc1cccc(C)c1N=C1NN=C(c2ccccc2F)CS1 | inconclusive: 56.2 µM [inhibitor, partial curve, poor fit] | –
Cc1ccccc1Cn1cc(CCC(=O)N2CCOCC2)c2ccccc21 | inconclusive: 89.1 µM [inhibitor, single point] | –
CCOC(=O)N1CCC(N2Cc3cccc(C(=O)NCc4ccccc4OC)c3C2=O)CC1 | inconclusive: 39.8 µM [inhibitor, single point] | –
Cc1cccc(CN2CCCC(C(=O)c3ccc4c5c(cccc35)CC4)C2)n1 (configuration not stated) | inconclusive: 35.5 µM [inhibitor, partial curve, poor fit] | –
CCOC(=O)c1ccc(NC(=O)CC2Sc3ccc(C(F)(F)F)cc3NC2=O)cc1 (configuration not stated) | – | inactive: 4.92%
O=C(NN1CCOCC1)c1ccc(F)cc1 | – | inactive: -8.35% [at 102 µM]
CCCCN(C)C(=O)Cn1c(C2CC(=O)N(c3ccc(C)cc3)C2)nc2ccccc21 (configuration not stated) | inconclusive: 20 µM [inhibitor, partial curve, poor fit] | –
COc1ccc(OC)c(Cc2nnc(CCC(=O)NCc3ccc(C)s3)o2)c1 | active: 25.1 µM | –
Cc1cccc(NC(=O)CN2CCCCCC2)c1 | active: 14.1 µM | –
O=C(c1ccc(CS(=O)(=O)c2ccc(Br)cc2)o1)N1CCOCC1 | inconclusive: 44.7 µM [inhibitor, partial curve] | –
COc1ccc(CN2CCC(=O)NC2=O)cc1 | – | inactive: -43.8%
COc1cccc(C(=O)Nc2cccc(NC(=O)c3ccc(Cl)cc3Cl)c2)c1 | inconclusive: 31.6 µM [inhibitor, partial curve, poor fit] | –
Cc1[nH]c2ccccc2c1C(=O)CSc1nc2ccccc2[nH]1 | – | inactive: 48.3% [at 12.7 µM]
O=C(/C=C\c1ccc(O)c(O)c1)O[C@@H]1C[C@](O)(C(=O)O)C[C@@H](O)[C@@H]1O | active: 0.355 µM | –

SMILES | Potency | activity, negative = inhibition
O=c1[nH]c2cc3c(cc2cc1CN(Cc1ccccc1)Cc1nnnn1Cc1ccco1)OCCO3 | active: 25.1 µM | –
CCn1c(=O)c(C(=O)NCCCO)c(O)c2ccccc21 | inconclusive: 31.6 µM [inhibitor, single point] | –
COc1ccc(C(=O)NNC(=O)CSc2nnnn2-c2cc(OC)cc(OC)c2)cc1 | inconclusive: 89.1 µM [inhibitor, single point] | –
Cc1nnc(NC(=O)Nc2ccc(Cl)c(Cl)c2)s1 | – | inactive: -0.92%
Cc1ccc2c(c1)S/C(=C/c1ccc[n+](C)c1)N2CCO | active: 14.1 µM | –
CCOc1ccccc1NC(=O)c1c(NCc2ccc(C)o2)sc2c1CCC(C)C2 (configuration not stated) | – | inactive: -45.2%
Cc1cccc(-n2c(-c3ccccc3)c[nH]c2=S)c1C | inconclusive: 1.41 µM [inhibitor, full curve, poor fit] | –
CCCOc1ccc(-c2nn(-c3ccccc3)cc2C2NC(=O)NC(C)=C2C(=O)OC)cc1 (configuration not stated) | inconclusive: 17.8 µM [inhibitor, partial curve, poor fit] | –
O=C(N/N=C/c1ccc[nH]1)c1ccccc1OCc1ccc(F)cc1 | inconclusive: 4.47 µM [inhibitor, partial curve, poor fit] | –
Cc1cccc(NS(=O)(=O)c2ccc3c(c2)[C@H]2C=CC[C@H]2[C@@H](c2ccc(F)cc2)N3)c1 | active: 12.6 µM | –
COCCCN1C(=O)C(=O)/C(=C(/O)c2ccccc2)C1c1ccc(N(C)C)cc1 (configuration not stated) | active: 44.7 µM | –
C=CCn1c(=O)c2ccccc2n2c(SCc3nc4ccccc4s3)nnc12 | active: 12.6 µM | –
O=C(C(=O)N1CCN(c2ccccc2)CC1)c1cn(CC(=O)N2CCCCCC2)c2ccccc12 | inconclusive: 79.4 µM [inhibitor, single point] | –
COc1ccccc1CNC(=O)Cn1cccc1C(=O)c1ccccc1 | – | inactive: 9.92% [at 102 µM]
CCC(C)Nc1sc(S(=O)(=O)CC)nc1S(=O)(=O)c1ccc(C)cc1 (configuration not stated) | – | inactive: -1.62%
Cc1cc(C(=O)OCC(=O)N2CC(C)CC(C)C2)c(C)o1 (configuration not stated) | inconclusive: 89.1 µM [inhibitor, single point] | –
Cc1cc(-c2n[nH]c(=S)n2Cc2ccco2)n(C)n1 | active: 8.91 µM | –
CCOC(=O)N1CCC(N2C(=O)c3ccccc3C2Nc2cc(OC)c(OC)c(OC)c2)CC1 (configuration not stated) | inconclusive: 25.1 µM [inhibitor, single point] | –
O=C(CCN1C(=O)/C(=C\c2ccccc2)SC1=S)NNC(=O)c1ccccc1O | – | inactive: 7.63% [at 102 µM]
O=C(NCc1ccccn1)c1coc(=O)c(Br)c1 | inconclusive: 2.51 µM [inhibitor, full curve, poor fit] | –
COc1ccc2cc(C)c3nnc(SCC(=O)Nc4cc(OC)c(OC)cc4C(=O)O)n3c2c1 | active: 39.8 µM | –
O=C(C1=C[C@@H](c2ccc(Br)cc2)C[C@@H](OCc2ccc(CO)cc2)O1)N1CCN(Cc2ccccc2)CC1 | – | inconclusive: -99.5% [inhibitor]
Cc1ccc(NC(=S)N2CCN(S(=O)(=O)c3ccc(C)cc3)CC2)cc1 | – | inactive: 20.5% [at 102 µM]
COc1ccccc1N1CCN(c2ccnc3cc(Cl)ccc23)CC1 | inconclusive: 35.5 µM [inhibitor, single point] | –
